Screen size: about 110,000 compounds; about 230 (0.21%) showed an effect of 50% or more. Some of the results follow.
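Note: 30 min substrate incubation versus DMSO and 10 µM JCP410 controls.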

The experiment deals with DPAP1 (Plasmodium falciparum, UniProt Q8IIJ9). As to the kind of experiment: primary screen, percent inhibition; read by cleavage of a fluorogenic dipeptide substrate; higher = more effect of the substance. More on the design: species or system P. falciparum D10 trophozoite lysates; single well.
Sequence of DPAP1 (Q8IIJ9 whole entry, looked up): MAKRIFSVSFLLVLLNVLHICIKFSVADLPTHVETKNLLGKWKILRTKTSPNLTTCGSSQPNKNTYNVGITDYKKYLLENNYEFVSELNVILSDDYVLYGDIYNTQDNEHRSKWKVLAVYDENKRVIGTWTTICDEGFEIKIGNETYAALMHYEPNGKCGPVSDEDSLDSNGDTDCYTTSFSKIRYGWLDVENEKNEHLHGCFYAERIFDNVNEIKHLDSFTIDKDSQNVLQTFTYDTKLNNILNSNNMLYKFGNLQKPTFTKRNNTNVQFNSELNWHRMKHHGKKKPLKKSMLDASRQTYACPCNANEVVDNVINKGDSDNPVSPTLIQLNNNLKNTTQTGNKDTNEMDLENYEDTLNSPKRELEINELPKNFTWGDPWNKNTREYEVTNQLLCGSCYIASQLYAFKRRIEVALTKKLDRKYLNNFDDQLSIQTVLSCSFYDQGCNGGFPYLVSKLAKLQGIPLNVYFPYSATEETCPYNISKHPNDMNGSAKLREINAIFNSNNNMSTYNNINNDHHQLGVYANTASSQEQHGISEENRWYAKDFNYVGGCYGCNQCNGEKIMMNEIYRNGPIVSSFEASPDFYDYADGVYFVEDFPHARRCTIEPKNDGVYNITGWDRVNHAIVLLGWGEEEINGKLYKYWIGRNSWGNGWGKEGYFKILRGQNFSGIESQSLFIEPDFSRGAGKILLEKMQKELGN
Regarding `O=C(NC(=S)NCc1ccccc1)c1ccc([N+](=O)[O-])cc1`, the “% Inhibition @ 10 uM” value is listed as -0.0369%.
As to `CC(C)(C)C1CCc2c(sc3nnn(CC(=O)N4CCCCCC4)c(=O)c23)C1` (centres unmarked), the “% Inhibition @ 10 uM” value is reported as -2.71%.
With `O=C(c1ccc(Br)cc1)N(Cc1ccccc1)Cc1ccccc1`, the “% Inhibition @ 10 uM” value is given as -3.13%.
Consider `O=C1C2C3c4ccccc4C(c4ccccc43)C2C(=O)N1c1cc(Cl)ccn1` (centres unmarked), for which the “% Inhibition @ 10 uM” value was determined as 5.39%.
As for `COc1ccccc1N1CCN(Cc2cc(OC)c(O)c(OC)c2)CC1`, the “% Inhibition @ 10 uM” value was -1.86%.
Consider `COc1cccc2cc(-c3csnn3)c(=O)oc12`, for which the “% Inhibition @ 10 uM” value was 0.351%.
On to `CCOC(=O)c1cc2c(=O)n3ccccc3nc2n(CC2CCCO2)/c1=N/C(=O)c1ccccc1` (centres unmarked), for which the “% Inhibition @ 10 uM” value is on record as -2.9%.
As to `O=C1NC(=O)N(c2cccc(Cl)c2)C(=O)/C1=C\Nc1ccc(Br)cn1`, the “% Inhibition @ 10 uM” value came out at 0.673%.
The result for `O=C(Nc1cccnc1)C1CC(c2ccc(F)cc2)=NO1` (centres unmarked) reads 1.62%; that for `O=C(O)c1ccccc1-c1ccccc1C(=O)N1CCN(Cc2ccc3c(c2)OCO3)CC1`, -1.72%.
As to `COc1ccc(N2C(=O)CC(N3CCN(C4CCc5ccccc5C4)CC3)C2=O)cc1` (centres unmarked), the “% Inhibition @ 10 uM” value is -2.22%.
As to `CO/C(O)=C1/C(C)=NC2=C(C(=O)CCC2)C1c1ccc(N(C)C)cc1` (centres unmarked), the “% Inhibition @ 10 uM” value was -5.44%.
With `COc1ccc(-c2cc(C3CC3)nc3sc(C(N)=O)c(N)c23)cc1`, the “% Inhibition @ 10 uM” value is reported as 3.01%.
Consider `c1csc(CNc2c3c(nc4nncn24)CCC3)c1`, for which the “% Inhibition @ 10 uM” value is reported as 2.54%.
For `CC(Nc1cccc(Cl)c1)N1C(=O)CCC1=O` (centres unmarked), the “% Inhibition @ 10 uM” value was 2.23%.
Consider `O=C(CCN1C(=O)c2cccc3cccc(c23)C1=O)Nc1nc(-c2ccccc2)cs1`, for which the “% Inhibition @ 10 uM” value was 2.38%.
As for `O=C(O)C1C2CCC(O2)C1C(=O)Nc1ccc2c(c1)CCC2` (centres unmarked), the “% Inhibition @ 10 uM” value is -4.6%.
On to `Cc1nn(-c2cccc3ccccc23)c(O)c1/C=N/c1ccc2[nH]c(O)nc2c1`, for which the “% Inhibition @ 10 uM” value is -0.759%.
The result for `Cc1ccc(C)c(S(=O)(=O)NCc2ccc(C(=O)N3CCN(c4ccccc4)CC3)cc2)c1` reads 9.29%; that for `COc1ccc(C(c2c(O)n[nH]c2C)c2c(O)n[nH]c2C)cc1Br`, -0.822%; that for `Cc1cc(C)c(C(=O)c2ccc(C(=O)NC3CCCCC3)cc2)c(C)c1`, -6.78%.
The result for `Cc1ccccc1NC(=O)c1cccc(NC(=O)c2ccccc2C(=O)O)c1` reads -5.41%; that for `Cc1cc(C)c(OCC(O)CNC(C)(C)C)c(C)c1` (centres unmarked), 7.34%.
As to `C=CCN1C(=O)/C(=C/c2ccc(OC)c(OC)c2)C(=O)NC1=S`, the “% Inhibition @ 10 uM” value is listed as -4.87%.
For `COc1ccc(C2C3=C(O)CC(C)(C)CC3=NC(C)=C2C(=O)Nc2ccc(Br)cn2)cc1` (centres unmarked), the “% Inhibition @ 10 uM” value amounted to 1.08%.
For `C=CCOc1ccccc1CN1CCN(c2ccc(OC)cc2)CC1`, the “% Inhibition @ 10 uM” value stood at 0.0792%.
